From PubChem BioAssay AID485294 (National Center for Advancing Translational Sciences (NCATS), 2010)
“And” between values parts separate entries of the source, which are not always exact repeats. Identical values can stand only once. About 150 (0.041%) of roughly 370,000 compounds were called active. Inconclusive means that the source gave no clear call. Such entries were picked first, then a sample of the others. The call rests on the fitted dose curve; in most records, active means well fitted inhibition curve with a large enough effect; inconclusive means small, poorly fitted or top-dose-only effect; inactive means flat fitted curve, though single readings scatter. A potency beside an inconclusive call is a rough fit, not a confirmed value.

Target: Beta-lactamase (Escherichia coli (strain K12)) (UniProt P00811)
Assay: qHTS Inhibitors of AmpC Beta-Lactamase (assay with detergent); further: nearly all actives have a fitted effect of over 25% in size
Conditions: AmpC hydrolysis of nitrocefin, absorbance 480 nm, 0.01% Triton; series mostly up to 114 µM
Procedure, shortened: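 20 mM phosphate pH 7.0 + 0.01% (detergent screen) or 0.0001% Triton X-100; 5.3 nM AmpC reagent; cpd preinc 15 min RT; nitrocefin (800 uM stock) to start; A480 q20 s × 4 min; Activity was normalised to no-enzyme and no-compound control wells.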
Potency means the concentration at half of the fitted maximal effect; tags describe the fitted curve by direction and shape.

Sequence of UniProt P00811 (P00811 whole entry, looked up): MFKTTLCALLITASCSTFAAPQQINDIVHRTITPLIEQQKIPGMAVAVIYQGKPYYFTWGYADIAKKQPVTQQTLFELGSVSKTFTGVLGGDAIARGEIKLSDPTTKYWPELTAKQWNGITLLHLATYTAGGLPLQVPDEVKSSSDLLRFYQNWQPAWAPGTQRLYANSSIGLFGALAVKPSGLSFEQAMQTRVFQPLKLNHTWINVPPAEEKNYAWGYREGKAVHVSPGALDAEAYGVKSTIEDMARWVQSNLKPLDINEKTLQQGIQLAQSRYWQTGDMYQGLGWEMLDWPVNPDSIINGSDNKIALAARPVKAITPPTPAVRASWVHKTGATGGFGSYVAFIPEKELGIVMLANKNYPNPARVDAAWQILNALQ

| Compound | Potency |
| --- | --- |
| NC(=O)C(=O)N/N=C/c1c2ccccc2cc2ccccc12 | inconclusive: 39.8 µM [inhibitor, single point] |
| COc1ccc(-c2nc3cnccn3c2NCc2ccccc2)cc1SC1CCCCC1 | inconclusive: 3.16 µM [inhibitor, single point] |
| CCOc1ccc(C2CC(=O)NC2=O)cc1 (stereo not given) | inconclusive: 39.8 µM [inhibitor, single point] |
| S=C(Nc1ccccc1)N1CCn2c1nc1ccccc12 | inconclusive: 56.2 µM [inhibitor, partial curve, poor fit] |
| CCOC(=O)N1CCN(Cc2nc3c(c(=O)n(C)c(=O)n3C)n2Cc2cccc(C)c2)CC1 | inconclusive: 1.26 µM [inhibitor, full curve, poor fit] |
| Cc1cn(C)c(CC(=O)N2CCN(c3cccc(C(F)(F)F)c3)CC2)c1C(=O)O | inactive |
| Cc1ccc(-n2nc3cc(C)c(NC(=O)COc4ccccc4)cc3n2)cc1 | inactive |
| Cc1nc2ccccc2c(=O)n1/N=C/c1ccc(O)cc1 | inactive |
| Cc1cc2nn(-c3ccccc3)nc2cc1NC(=O)c1cccs1 | inconclusive: 3.55 µM [inhibitor, full curve] |
| O=C(CSc1nc(-c2ccc(F)cc2)nc2c1Cc1ccccc1O2)Nc1cccc(C(=O)O)c1 | inconclusive: 50.1 µM [inhibitor, partial curve, poor fit] and inconclusive: 89.1 µM [inhibitor, partial curve, poor fit] |
| COc1cccc(/C=N/NC(=O)Cn2cnc3c2c(=O)n(C)c(=O)n3C)c1 | inconclusive: 4.47 µM [inhibitor, single point] |
| COc1ccc(O)c(N)c1 | inconclusive: 44.7 µM [inhibitor, partial curve] |
| O=C(Nc1ccccc1)c1ccccc1CSc1ccccc1 | inconclusive: 4.47 µM [inhibitor, partial curve, poor fit] |
| C=CCSCC1Nc2cc(Cl)c(S(N)(=O)=O)cc2S(=O)(=O)N1 (stereo not given) | inconclusive: 5.62 µM [inhibitor, full curve, poor fit] |
| O=C(Nc1cc(S(=O)(=O)N2CCCCCC2)ccc1OCC(F)(F)F)c1cnccn1 | inactive |
| CCOc1ccc(NC(=O)N2CCC(n3nnc4ccccc43)CC2)cc1 | inactive |
| COc1cccc(CN(CC2CCCO2)S(=O)(=O)c2ccc(S(=O)(=O)N(C)C)cc2)c1 (stereo not given) | inactive |
| Cc1ccc(NCc2nnc(SCC(=O)NCc3ccco3)n2CC2CCCO2)c(C)c1 (stereo not given) | inconclusive: 1.26 µM [inhibitor, full curve, poor fit] |
| COc1cc(CCC(=O)N2CCN(c3ccc(N4CCOCC4)nn3)CC2)cc(OC)c1OC | inconclusive: 126 µM [inhibitor, partial curve, poor fit] |
| COc1ccc(/C=N\NC(=O)c2ccccc2OC)cc1COc1c(F)c(F)c(F)c(F)c1F | inactive |
| CCOc1ccc(NC(=O)CC2C(=O)N(c3ccc(C)cc3)C(=O)N2C2CCCCC2)cc1 (stereo not given) | inactive |
| Cc1cccc(C)c1NC(=O)CCS(=O)(=O)c1ccc(Br)cc1 | inactive |

| Compound | Potency |
| --- | --- |
| CCOc1ccc(NC(=S)NCc2ccc3c(c2)OCO3)cc1 | inactive |
| Cc1ccc(Cl)c(OCC(=O)Nc2cc(S(=O)(=O)N3CCOCC3)ccc2N2CCCC2)c1 | inactive |
| CCOc1ccccc1C1C(C(N)=O)=C(C)Nc2nc(-c3ccccc3Cl)nn21 (stereo not given) | inconclusive: 79.4 µM [inhibitor, partial curve] |
| NS(=O)(=O)c1ccc(NC(=O)Cc2cccs2)cc1 | inconclusive: 28.2 µM [inhibitor, partial curve] |
| CCOc1ccc(C(=O)NCc2cccnc2)cc1 | inconclusive: 39.8 µM [inhibitor, partial curve] |
| O=c1c2c(ncn1CCO)nc1n2CCC1 | inconclusive: 70.8 µM [inhibitor, partial curve, poor fit] |
| CC1Cc2nc(SCC(=O)Nc3ccc(F)cc3F)n(C)c(=O)c2S1 (stereo not given) | inconclusive: 22.4 µM [inhibitor, single point] |
| Cc1ccc(S(=O)(=O)N2CCC(C(=O)OC(C)C(=O)NCc3ccc4c(c3)OCO4)CC2)cc1 (stereo not given) | inconclusive: 44.7 µM [inhibitor, full curve, poor fit] |
| Cc1ccc2c(c1)N(S(=O)(=O)c1ccc(CN3C(=O)c4cccnc4C3=O)cc1)CCO2 | inactive |
| COc1cc(NC(=O)C2CCN(S(=O)(=O)c3c(C)noc3/C=C/c3cccs3)CC2)cc(OC)c1 | inactive |
| C=CCn1c(CNc2ccc(C)cc2)nnc1SCC(=O)N/N=C/c1ccc(O)cc1O | inconclusive: 6.31 µM [inhibitor, full curve, poor fit] |
| O=C(Nc1ccc(Cn2cccn2)cc1)c1ccc(COc2ccccc2Br)cc1 | inconclusive: 70.8 µM [inhibitor, single point] |
| Cc1ccc(C(C)c2c(C)c([N+](=O)[O-])cc(C)c2[N+](=O)[O-])cn1 (stereo not given) | inconclusive: 0.891 µM [inhibitor, full curve] |
| Cc1ccc(S(=O)(=O)NC2CC(C)(C)NC(C)(C)C2)cc1C | inconclusive: 0.708 µM [inhibitor, full curve, poor fit] |
| CN(C)S(=O)(=O)c1ccc(C(=O)NCCN2C(=O)S/C(=C\c3cccnc3)C2=O)cc1 | inactive |
| O=C(CSc1nnc(CNC(=O)C23CC4CC(CC(C4)C2)C3)n1-c1ccc(F)cc1)Nc1ccc(F)cc1 | inconclusive: 17.8 µM [inhibitor, partial curve] |
| CCOC(=O)N1CCC(N2Cc3cccc(C(=O)NCc4ccc(OC)cc4)c3C2=O)CC1 | inconclusive: 1.78 µM [inhibitor, full curve, poor fit] |
| O=C(N/N=C/c1cn(Cc2cccc(F)c2)c2ccccc12)c1cc(O)cc(O)c1 | inconclusive: 1.78 µM [inhibitor, full curve, poor fit] |
| CC1SCC(NC(=O)c2ccc(Cl)cc2)CS1 (stereo not given) | inactive |
| Cc1c(C(=O)OC2CCCC2C)[nH]c2c1C(=O)CCC2 (stereo not given) | inactive |
| CCC1N=C(SC)NC(C)=C1C(=O)c1ccccc1 (stereo not given) | inconclusive: 3.55 µM [inhibitor, full curve, poor fit] |
| CCOC(=O)c1c(C)[nH]c(C)c1C(=O)CN1C(=O)NC2(CCCCCC2)C1=O | inconclusive: 0.631 µM [inhibitor, full curve] |

| Compound | Potency |
| --- | --- |
| O=C1CC(N2CCOCC2)C(=O)N1c1cccc(Cl)c1 (stereo not given) | inactive |
| COc1ccc(NC(=O)Cn2c(C)csc2=O)c(OC)c1 | inconclusive: 0.708 µM [inhibitor, full curve] |
| CCN(CC)S(=O)(=O)c1ccc(N2CCCC2)c(NC(=O)C2CSC3(C)CCC(=O)N23)c1 (stereo not given) | inconclusive: 2.51 µM [inhibitor, full curve, poor fit] |
| O=C(CCN1C(=O)C2C3C=CC(C3)C2C1=O)NC1CCCc2ccccc21 (stereo not given) | inconclusive: 1.41 µM [inhibitor, full curve, poor fit] |
| COC(=O)C1(C)NC(c2cccs2)C2C(=O)N(c3ccc(F)cc3)C(=O)C21 (stereo not given) | inconclusive: 31.6 µM [inhibitor, full curve, poor fit] |
| O=c1oc2c(CN3CCN(CCO)CC3)c(O)ccc2cc1-c1ccccn1 | inconclusive: 22.4 µM [inhibitor, full curve, poor fit] |
| O=c1[nH]c(=O)n(-c2ccc(Cl)cc2)c(O)c1C=NCCN1CCCCC1 | inconclusive: 79.4 µM [inhibitor, single point] |
| CCS(=O)(=O)Nc1ccc(-c2nc3cccnc3s2)cc1 | inactive |
| COc1ccc(C(=O)Nc2ccnn2C2CCN(C(C)CSC)CC2)cc1 (stereo not given) | inconclusive: 5.01 µM [inhibitor, full curve, poor fit] |
| O=C(NC(=S)NC1C2CC3CC(C2)CC1C3)C12CC3CC(CC(C3)C1)C2 (stereo not given) | inconclusive: 39.8 µM [inhibitor, partial curve] |
| Nc1ccc(Cl)c[n+]1Cc1cccc2cccnc12 | inactive |
| O=C(Nc1ccc2c(c1)CCC2)c1cnccn1 | inconclusive: 89.1 µM [inhibitor, single point] |
| C=C1N(CCCCCC(=O)O)C(=O)OC12CCCCC2 | inconclusive: 0.631 µM [inhibitor, full curve, poor fit] |
| COC(=O)Cc1[nH]nc2c1C1(C(=O)N(Cc3ccccc3)c3ccccc31)C(C#N)=C(N)O2 (stereo not given) | inconclusive: 31.6 µM [inhibitor, partial curve] |
| CC1CC(C)CN(CCCNC(=O)C2CCCN(S(=O)(=O)N3CC(C)CC(C)C3)C2)C1 (stereo not given) | inconclusive: 0.708 µM [inhibitor, full curve, poor fit] |
| COc1ccc(-c2noc(N3CCCC(C(=O)Nc4cc(F)ccc4F)C3)n2)cc1 (stereo not given) | inconclusive: 100 µM [inhibitor, partial curve, poor fit] |
| COC(=O)c1ccncc1C(=O)Nc1ccc(F)cc1 | inconclusive: 4.47 µM [inhibitor, full curve, poor fit] |
| Cn1nc(CC(=O)Nc2ccc3c(c2)OCCO3)c2ccccc2c1=O | inconclusive: 15.8 µM [inhibitor, full curve] |
| CCCOc1ccc(N2C(=O)CC(NCc3ccncc3)C2=O)cc1 (stereo not given) | inconclusive: 39.8 µM [inhibitor, partial curve] |
| CC(c1ccccc1)N1CCn2c(nc3cc(NS(C)(=O)=O)ccc32)C1 (stereo not given) | inconclusive: 1.26 µM [inhibitor, full curve, poor fit] |
| Cc1ccc(OCCC(=O)N(Cc2ccccc2)c2c(N)n(Cc3ccccc3)c(=O)[nH]c2=O)cc1 | inconclusive: 100 µM [inhibitor, single point] |
